The values that follow come from patent US20260216242A1, “ALPP-SPECIFIC VARIANT ANTIGEN BINDING MOLECULES” (ALMAC DISCOVERY LIMITED, priority 2022, published 2026).

Residue numbers refer to the chain shown, from its start. Numbers in names are those of the source.

Sequences and labels used below:
B1: D10 E10-hFc (S239C T366Y/Y407T), [G4S]3 linker, MA-PEG4-vc-PAB-EDA-PNU159682 conjugate, #880 (Fc fusion, DAR 2.02)
chain 1: QVQLVESGGGLVQPGGSLRLSCAASGSIFSVNTMGWYRQAPGKQRDLVAVATSGGTIHYADSVKGRFTISRDNAKNTVYLQMNSLKPEDTAVYYCNLVVPYGMIAGDHDYWGQGTKVTVSSGGGGSGGGGSGGGGS[human IgG1 Fc with C220S S239C T366Y (EU numbers) not spelt out]
chain 2: QVQLVESGGGLVQAGGSLRLSCAVSGRALSDYNIGWFRQAPGKEREFVARKTWDGSSTRYDDSVKGRFTVSIEDAKNTAYLQMSSLKTEDTAVYYCAAGRYSRARGWEYDYWGQGTQVTVSSGGGGSGGGGSGGGGS[human IgG1 Fc with C220S S239C Y407T (EU numbers) not spelt out]
modifications: here or on the partner: MA-PEG4-vc-PAB-EDA-PNU159682 on Cys of S239C (EU numbering)
B2: A06 F05-hFc (S239C T366Y/Y407T), [G4S]3 linker, MA-PEG4-vc-PAB-EDA-PNU159682 conjugate, #883 (Fc fusion, DAR 2.03)
chain 1: QVHLVESGGGLVQAGGSLRLSCAASGRTFLSMGWFRQAPGKEREFVAAISWTGGSTGYADSVKGRFTISRESDKETMYLQMNSLKPEDTAVYYCAARGDVYYGGDDATRYKYWGQGTQVTVSSGGGGSGGGGSGGGGS[human IgG1 Fc with C220S S239C T366Y (EU numbers) not spelt out]
chain 2: B1 chain 2 with V24A, L29F, S30G, K51R, E73D, D74N, S84N, A104V
modifications: here or on the partner: MA-PEG4-vc-PAB-EDA-PNU159682 on Cys of S239C (EU numbering)
B3: D10 E06-hFc (S239C T366Y/Y407T), [G4S]3 linker, MA-PEG4-vc-PAB-EDA-PNU159682 conjugate, #881 (Fc fusion, DAR 2.02)
chain 1: B1 chain 1
chain 2: QVHLVESGGGLVQAGGSLRLSCAASRRSFSEYAMGWFRQAPGKEREFVAAIGWSGVIEYADSVKGRFTISRDNAKDTVYLQMNSLKPEDTAVYYCAAGLGIRVVSQTPAYWGQGTQVTVSSGGGGSGGGGSGGGGS[human IgG1 Fc with C220S S239C Y407T (EU numbers) not spelt out]
modifications: here or on the partner: MA-PEG4-vc-PAB-EDA-PNU159682 on Cys of S239C (EU numbering)
B4: D10 F05-hFc (S239C T366Y/Y407T), [G4S]3 linker, MA-PEG4-vc-PAB-EDA-PNU159682 conjugate, #882 (Fc fusion, DAR 1.94)
chain 1: B1 chain 1
chain 2: B1 chain 2 with V24A, L29F, S30G, K51R, E73D, D74N, S84N, A104V
modifications: here or on the partner: MA-PEG4-vc-PAB-EDA-PNU159682 on Cys of S239C (EU numbering)
B5: D10 E06-hFc (S239C T366Y/Y407T), [G4S]1 linker, MA-PEG4-vc-PAB-EDA-PNU159682 conjugate, #884 (Fc fusion, DAR 2.03)
chain 1: QVQLVESGGGLVQPGGSLRLSCAASGSIFSVNTMGWYRQAPGKQRDLVAVATSGGTIHYADSVKGRFTISRDNAKNTVYLQMNSLKPEDTAVYYCNLVVPYGMIAGDHDYWGQGTKVTVSSGGGGS[human IgG1 Fc with C220S S239C T366Y (EU numbers) not spelt out]
chain 2: QVHLVESGGGLVQAGGSLRLSCAASRRSFSEYAMGWFRQAPGKEREFVAAIGWSGVIEYADSVKGRFTISRDNAKDTVYLQMNSLKPEDTAVYYCAAGLGIRVVSQTPAYWGQGTQVTVSSGGGGS[human IgG1 Fc with C220S S239C Y407T (EU numbers) not spelt out]
modifications: here or on the partner: MA-PEG4-vc-PAB-EDA-PNU159682 on Cys of S239C (EU numbering)
B6: D10 F05-hFc (S239C T366Y/Y407T), [G4S]1 linker, MA-PEG4-vc-PAB-EDA-PNU159682 conjugate, #886 (Fc fusion, DAR 2.01)
chain 1: B5 chain 1
chain 2: QVQLVESGGGLVQAGGSLRLSCAASGRAFGDYNIGWFRQAPGKEREFVARRTWDGSSTRYDDSVKGRFTVSIDNAKNTAYLQMNSLKTEDTAVYYCAAGRYSRVRGWEYDYWGQGTQVTVSSGGGGS[human IgG1 Fc with C220S S239C Y407T (EU numbers) not spelt out]
modifications: here or on the partner: MA-PEG4-vc-PAB-EDA-PNU159682 on Cys of S239C (EU numbering)
B7: D10 E10-hFc (S239C T366Y/Y407T), [G4S]1 linker, MA-PEG4-vc-PAB-EDA-PNU159682 conjugate, #885 (Fc fusion, DAR 2.02)
chain 1: B5 chain 1
chain 2: B6 chain 2 with A24V, F29L, G30S, R51K, D73E, N74D, N84S, V104A
modifications: here or on the partner: MA-PEG4-vc-PAB-EDA-PNU159682 on Cys of S239C (EU numbering)

What is called IC50 is the concentration at which inhibition is half-maximal. A higher IC50 goes with weaker potency.

The target of this assay is ALPP/ALPPL2 on ALPP/ALPPL2 positive cancer cells (MKN1, NCI-H1651, NCI-N87, Caov-3, HPAC). As to the kind of experiment: cell-based or functional assay.
For B1, the % viability remaining at 96 h, Caov-3 cells was 23%; the % viability remaining at 96 h, HPAC cells is 4%; the % viability remaining at 96 h, MKN1 cells was found to be 3%; the % viability remaining at 96 h, NCI-H1651 cells amounted to 7%. The % viability remaining at 96 h, NCI-N87 cells is 13%; the IC50 at 96 h, cell-killing of Caov-3 cells came to 0.26 nM; the IC50 at 96 h, cell-killing of HPAC cells turned out to be 0.48 nM; the half-inhibitory concentration (IC50) at 96 h, cell-killing of MKN1 cells turned out to be 0.29 nM. For the same molecule, the IC50 at 96 h, cell-killing of NCI-H1651 cells worked out at 0.18 nM and the IC50 at 96 h, cell-killing of NCI-N87 cells is 1.5 nM.
Turning to B2, the % viability remaining at 96 h, Caov-3 cells turned out to be 17%; the % viability remaining at 96 h, HPAC cells turned out to be 6%; the % viability remaining at 96 h, MKN1 cells amounted to 4%; the % viability remaining at 96 h, NCI-H1651 cells came to 7%. Also, the % viability remaining at 96 h, NCI-N87 cells was 12%; the IC50 at 96 h, cell-killing of Caov-3 cells was 0.55 nM; the IC50 at 96 h, cell-killing of HPAC cells was found to be 0.34 nM; the IC50 at 96 h, cell-killing of MKN1 cells was found to be 0.45 nM. The molecule further displayed an IC50 at 96 h, cell-killing of NCI-H1651 cells of 0.12 nM and an IC50 at 96 h, cell-killing of NCI-N87 cells of 1.1 nM.
In turn, B3 displayed a % viability remaining at 96 h, Caov-3 cells of 18%; a % viability remaining at 96 h, HPAC cells of 8%; a % viability remaining at 96 h, MKN1 cells of 3%; a % viability remaining at 96 h, NCI-H1651 cells of 7%. In addition, the % viability remaining at 96 h, NCI-N87 cells came out at 12%; the IC50 at 96 h, cell-killing of Caov-3 cells stood at 1.97 nM; the IC50 at 96 h, cell-killing of HPAC cells came to 4.22 nM; the IC50 at 96 h, cell-killing of MKN1 cells is 0.6 nM. This molecule also yielded an IC50 at 96 h, cell-killing of NCI-H1651 cells of 0.38 nM and an IC50 at 96 h, cell-killing of NCI-N87 cells of 1.98 nM.
With B4, the % viability remaining at 96 h, Caov-3 cells came to 20%; the % viability remaining at 96 h, HPAC cells stood at 4%; the % viability remaining at 96 h, MKN1 cells was 3%; the % viability remaining at 96 h, NCI-H1651 cells is 7%. This molecule returned a % viability remaining at 96 h, NCI-N87 cells of 12%; an IC50 at 96 h, cell-killing of Caov-3 cells of 0.28 nM; an IC50 at 96 h, cell-killing of HPAC cells of 0.63 nM; an IC50 at 96 h, cell-killing of MKN1 cells of 0.3 nM. This molecule also had an IC50 at 96 h, cell-killing of NCI-H1651 cells of 0.21 nM and an IC50 at 96 h, cell-killing of NCI-N87 cells of 0.88 nM.
Regarding B5, the % viability remaining at 96 h, Caov-3 cells came out at 26%; the % viability remaining at 96 h, HPAC cells came out at 9%; the % viability remaining at 96 h, MKN1 cells stood at 3%; the % viability remaining at 96 h, NCI-H1651 cells stood at 8%. The % viability remaining at 96 h, NCI-N87 cells was 12%; the IC50 at 96 h, cell-killing of Caov-3 cells is 0.41 nM; the IC50 at 96 h, cell-killing of HPAC cells was 1.3 nM; the IC50 at 96 h, cell-killing of MKN1 cells stood at 0.41 nM. This molecule also showed an IC50 at 96 h, cell-killing of NCI-H1651 cells of 0.19 nM and an IC50 at 96 h, cell-killing of NCI-N87 cells of 0.86 nM.
Regarding B6, the % viability remaining at 96 h, Caov-3 cells worked out at 30%; the % viability remaining at 96 h, HPAC cells stood at 7%; the % viability remaining at 96 h, MKN1 cells turned out to be 4%; the % viability remaining at 96 h, NCI-H1651 cells amounted to 9%. This molecule also registered a % viability remaining at 96 h, NCI-N87 cells of 12%; an IC50 at 96 h, cell-killing of Caov-3 cells of 0.69 nM; an IC50 at 96 h, cell-killing of HPAC cells of 0.84 nM; an IC50 at 96 h, cell-killing of MKN1 cells of 0.3 nM. Further, the IC50 at 96 h, cell-killing of NCI-H1651 cells was found to be 0.16 nM and the IC50 at 96 h, cell-killing of NCI-N87 cells was 0.39 nM.
B7: the % viability remaining at 96 h, Caov-3 cells was determined as 27%; the % viability remaining at 96 h, HPAC cells worked out at 9%; the % viability remaining at 96 h, MKN1 cells amounted to 4%; the % viability remaining at 96 h, NCI-H1651 cells worked out at 8%. In addition, the % viability remaining at 96 h, NCI-N87 cells was determined as 12%; the IC50 at 96 h, cell-killing of Caov-3 cells was 0.58 nM; the IC50 at 96 h, cell-killing of HPAC cells is 1 nM; the IC50 at 96 h, cell-killing of MKN1 cells came out at 0.29 nM. This molecule had an IC50 at 96 h, cell-killing of NCI-H1651 cells of 0.18 nM and an IC50 at 96 h, cell-killing of NCI-N87 cells of 0.88 nM.
